The text below walks through data of the antibiotic and cytotoxicity screens of Wong et al. (2023).

Each structure is given as a SMILES string. Some of the results follow.

One test concerns HepG2. The experiment in a line: cytotoxicity call (relative viability < 0.9). Particulars: 10 µM.
As to `CCO[C@H]1OC(C(=O)N2CCN(Cc3ccc4c(c3)OCO4)CC2)=C[C@@H](c2ccc(C(F)(F)F)cc2)[C@@H]1CCCOC(=O)NCCCCCC(=O)NO`, the cytotoxicity call is “inactive”. The same measure, in the same setting: the same measure for `COc1cc(NC(C)CCCN)c2ncccc2c1.O=P(O)(O)O.O=P(O)(O)O` (stereo not given): “active”; for `COc1cccc(NC(=O)C[C@@H]2CC[C@H]3[C@H](COc4ccc(NC(=O)C5CCOCC5)cc4C(=O)N3C)O2)c1`: “inactive”; for `O=C1N[C@@H](Cc2c[nH]c3ccccc23)COC(=O)[C@H](Cc2ccc(F)cc2)CCC=CC[C@@H]1CC(=O)N(CCO)Cc1ccccc1`: “inactive”.

Regarding `Cc1noc(C)c1NC(=O)Nc1cccc2c1O[C@@H](CN(C)Cc1ccc(-c3ccccc3)cc1)[C@H](C)CN([C@@H](C)CO)C2=O`, the cytotoxicity call is “inactive”.

As for `C=CC(=O)N1CC[C@@H](Oc2nc(Nc3ccc(N4CCC(N5CCN(C)CC5)CC4)cc3)c(C(N)=O)nc2CC)C1`, the cytotoxicity call was “active”. The same measure, in the same setting: for `CN1CCN([C@@H]2CCN[C@H]2Cc2cnn(C)c2)CC1` the value was “inactive”. The same measure, in the same setting: for `C[C@@H]1CCCCO[C@H](CN(C)Cc2ccccc2)[C@H](C)CN([C@@H](C)CO)C(=O)c2cc(NC(=O)c3ccccc3)ccc2O1` the value was “inactive”; for `Cc1ccc(S(=O)(=O)N(C)C[C@H]2Oc3ccc(NC(=O)CCCN(C)C)cc3CC(=O)N([C@H](C)CO)C[C@H]2C)cc1`, “inactive”; for `C[C@H](CO)N1C[C@H](C)[C@H](CN(C)S(=O)(=O)c2ccc(Cl)cc2)Oc2c(NS(C)(=O)=O)cccc2C1=O`, “inactive”.

Take `CC(C)=CC[C@H]1O[C@]2(O)[C@@H]([C@H]3CC[C@@H]4[C@@]5(C)CC[C@H](O[C@@H]6O[C@H](CO[C@@H]7O[C@@H](C)[C@H](O)[C@@H](O)[C@H]7O)[C@@H](O)[C@H](O)[C@@H]6O)C(C)(C)[C@@H]5CC[C@@]4(C)[C@]3(C)[C@H]2O)[C@@]1(C)O[C@@H]1O[C@@H](C)[C@H](O)[C@@H](O)[C@H]1O`: the cytotoxicity call was “inactive”. Take `C[C@@H]1CN([C@@H](C)CO)C(=O)c2cc(NC(=O)Cn3cnnn3)ccc2O[C@@H]1CN(C)S(=O)(=O)c1cccs1`: the cytotoxicity call is “inactive”.

`Cc1ccc(S(=O)(=O)N(C)C[C@H]2OCCCC[C@@H](C)Oc3ccc(NS(=O)(=O)c4ccc(F)cc4)cc3C(=O)N([C@@H](C)CO)C[C@H]2C)cc1`: the cytotoxicity call was “inactive”.

On to `C[C@@H]1CCCCO[C@@H](CN(C)C(=O)Nc2ccc(C(F)(F)F)cc2)[C@@H](C)CN([C@H](C)CO)C(=O)c2cc(NS(C)(=O)=O)ccc2O1`, for which the cytotoxicity call is “inactive”. With `C[C@@H]1CN([C@H](C)CO)C(=O)c2cc(NC(=O)CCN3CCOCC3)ccc2O[C@H]1CN(C)S(C)(=O)=O`, the cytotoxicity call was “inactive”.

The subject of a further test is S. aureus RN4220. The experiment in a line: growth inhibition call (relative growth <= 0.2). As to conditions: 50 µM.
Take `C[C@H](CO)N1C[C@H](C)[C@@H](CN(C)C(=O)Nc2ccc(C(F)(F)F)cc2)Oc2ccc(NC(=O)Nc3ccc(C(F)(F)F)cc3)cc2C1=O`: the growth inhibition call was “inactive”. Still for that read-out and setting: for `CCNC(=O)C[C@H]1C=C[C@@H](NC(=O)C2CC2)[C@@H](CO)O1` the value was “inactive”. On the same count and under the same terms, for `C[C@@H]1CN([C@H](C)CO)C(=O)c2cc(NC(=O)C3CCCCC3)ccc2O[C@@H](C)CCCCO[C@H]1CN(C)S(=O)(=O)c1cccs1` the value was “inactive”. Still for that read-out and setting: for `C[C@@H]1CCCCO[C@H](CN(C)C(=O)Nc2ccc3c(c2)OCO3)[C@H](C)CN([C@H](C)CO)C(=O)c2cc(NS(=O)(=O)c3ccccc3)ccc2O1` the value was “inactive”.

For `C[C@@H]1CCCCO[C@H](CN(C)S(=O)(=O)c2ccc(F)cc2)[C@H](C)CN([C@@H](C)CO)C(=O)c2cc(NC(=O)Nc3cccc4ccccc34)ccc2O1`, the growth inhibition call was “inactive”. As for `C[C@H](CO)N1C[C@H](C)[C@H](CN(C)Cc2ccccc2)Oc2ccc(NC(=O)Nc3ccc(C(F)(F)F)cc3)cc2C1=O`, the growth inhibition call is “active”. The same measure, in the same setting: the same measure for `C=c1nnsc1=C1NC(c2cc(C)on2)=NO1`: “inactive”; for `C[C@@H]1CN([C@@H](C)CO)C(=O)c2cc(NC(=O)Nc3cccc4ccccc34)ccc2O[C@@H](C)CCCCO[C@@H]1CN(C)C(=O)Nc1ccccc1`: “inactive”; for `COCC(=O)N(C)C[C@@H]1Oc2cc(C#CCN(C)C)ccc2S(=O)(=O)N([C@@H](C)CO)C[C@H]1C`: “inactive”. Still for that read-out and setting: the same measure for `COc1ccc(S(=O)(=O)Nc2ccc3c(c2)C(=O)N([C@@H](C)CO)C[C@@H](C)[C@H](CN(C)Cc2ccc(C(F)(F)F)cc2)OCCCC[C@@H](C)O3)cc1`: “inactive”; for `COc1ccc(-c2cnc3c(c2)C(=O)N([C@H](C)CO)C[C@H](C)[C@H](CN(C)S(=O)(=O)c2ccc(F)cc2)O3)cc1`: “inactive”; for `C[C@H](CO)N1C[C@H](C)[C@@H](CN(C)C(=O)CN2CCOCC2)Oc2cc(C#Cc3cccc(F)c3)ccc2S1(=O)=O`: “inactive”.

For `COc1ccc(S(=O)(=O)N(C)C[C@@H]2OCCCC[C@@H](C)Oc3ccc(NS(=O)(=O)c4ccc(Cl)cc4)cc3C(=O)N([C@H](C)CO)C[C@@H]2C)cc1`, the growth inhibition call is “inactive”.

As to `C[C@@H]1CN([C@H](C)CO)C(=O)c2cccc(NS(=O)(=O)c3cccs3)c2O[C@H]1CN(C)Cc1ccncc1`, the growth inhibition call was “inactive”.

`C[C@H]1CN([C@@H](C)CO)C(=O)c2cccc(NC(=O)C3CCOCC3)c2O[C@@H]1CN(C)Cc1ccc(Oc2ccccc2)cc1`: the growth inhibition call was “inactive”.

Regarding `C[C@H](CO)N1C[C@H](C)[C@@H](CN(C)Cc2cccc(F)c2)OCc2ccccc2-c2c(n(C)c3ccccc23)C1=O`, the growth inhibition call is “inactive”.

In the case of `CC(C)C#Cc1cnc2c(c1)C(=O)N([C@@H](C)CO)C[C@H](C)[C@H](CN(C)C(=O)c1ccc3c(c1)OCO3)O2`, the growth inhibition call is “inactive”. The same measure, in the same setting: for `COc1ccc(S(=O)(=O)N(C)C[C@H]2Oc3c(NS(=O)(=O)c4ccc(C)cc4)cccc3C(=O)N([C@@H](C)CO)C[C@@H]2C)cc1` the value was “inactive”; for `C[C@H](CO)N1C[C@H](C)[C@H](CN(C)C(=O)Nc2ccc(F)cc2)OCCCC[C@H](C)Oc2ccc(NC(=O)Cc3ccccc3)cc2C1=O`, “inactive”. The same measure, in the same setting: the same measure for `C[C@H](CO)N1C[C@H](C)[C@H](CN(C)Cc2ccc(C(=O)O)cc2)OCCCC[C@H](C)Oc2ccc(NC(=O)c3ccccc3)cc2C1=O`: “inactive”. Still for that read-out and setting: for `C[C@@H]1CN([C@H](C)CO)C(=O)c2cccc(NS(=O)(=O)c3cccs3)c2O[C@H]1CN(C)CC1CC1` the value was “inactive”.

`CC(S)C(=O)NCC(=O)O` (stereo not given): the growth inhibition call is “inactive”. The same measure, in the same setting: the same measure for `C[C@H](CO)N1C[C@H](C)[C@@H](CN(C)Cc2ccc(-c3ccccc3)cc2)Oc2ccc(NC(=O)Cc3cn(C)c4ccccc34)cc2CC1=O`: “inactive”; for `CC(C)NC(=O)N(C)C[C@@H]1Oc2ccc(NC(=O)C3CCCCC3)cc2C(=O)N([C@@H](C)CO)C[C@H]1C`: “inactive”. Still for that read-out and setting: for `Cc1noc(C)c1NC(=O)Nc1ccc2c(c1)C(=O)N([C@@H](C)CO)C[C@@H](C)[C@H](CN(C)C(=O)Nc1ccccc1)OCCCC[C@H](C)O2` the value was “inactive”; for `CCO[C@H]1OC(C(=O)N2CCN(Cc3ccc4c(c3)OCO4)CC2)=C[C@@H](c2ccc(C(F)(F)F)cc2)[C@@H]1CCCOC(=O)NCCCCCC(=O)NO`, “inactive”. On the same count and under the same terms, for `COc1cc(NC(C)CCCN)c2ncccc2c1.O=P(O)(O)O.O=P(O)(O)O` (stereo not given) the value was “inactive”; for `COc1cccc(NC(=O)C[C@@H]2CC[C@H]3[C@H](COc4ccc(NC(=O)C5CCOCC5)cc4C(=O)N3C)O2)c1`, “inactive”; for `O=C1N[C@@H](Cc2c[nH]c3ccccc23)COC(=O)[C@H](Cc2ccc(F)cc2)CCC=CC[C@@H]1CC(=O)N(CCO)Cc1ccccc1`, “inactive”.

As to `Cc1noc(C)c1NC(=O)Nc1cccc2c1O[C@@H](CN(C)Cc1ccc(-c3ccccc3)cc1)[C@H](C)CN([C@@H](C)CO)C2=O`, the growth inhibition call is “inactive”. Still for that read-out and setting: for `C=CC(=O)N1CC[C@@H](Oc2nc(Nc3ccc(N4CCC(N5CCN(C)CC5)CC4)cc3)c(C(N)=O)nc2CC)C1` the value was “inactive”; for `CN1CCN([C@@H]2CCN[C@H]2Cc2cnn(C)c2)CC1`, “inactive”; for `C[C@@H]1CCCCO[C@H](CN(C)Cc2ccccc2)[C@H](C)CN([C@@H](C)CO)C(=O)c2cc(NC(=O)c3ccccc3)ccc2O1`, “inactive”. On the same count and under the same terms, for `Cc1ccc(S(=O)(=O)N(C)C[C@H]2Oc3ccc(NC(=O)CCCN(C)C)cc3CC(=O)N([C@H](C)CO)C[C@H]2C)cc1` the value was “inactive”; for `C[C@H](CO)N1C[C@H](C)[C@H](CN(C)S(=O)(=O)c2ccc(Cl)cc2)Oc2c(NS(C)(=O)=O)cccc2C1=O`, “inactive”; for `CC(C)=CC[C@H]1O[C@]2(O)[C@@H]([C@H]3CC[C@@H]4[C@@]5(C)CC[C@H](O[C@@H]6O[C@H](CO[C@@H]7O[C@@H](C)[C@H](O)[C@@H](O)[C@H]7O)[C@@H](O)[C@H](O)[C@@H]6O)C(C)(C)[C@@H]5CC[C@@]4(C)[C@]3(C)[C@H]2O)[C@@]1(C)O[C@@H]1O[C@@H](C)[C@H](O)[C@@H](O)[C@H]1O`, “inactive”. The same measure, in the same setting: for `C[C@@H]1CN([C@@H](C)CO)C(=O)c2cc(NC(=O)Cn3cnnn3)ccc2O[C@@H]1CN(C)S(=O)(=O)c1cccs1` the value was “inactive”. For the molecule `Cc1ccc(S(=O)(=O)N(C)C[C@H]2OCCCC[C@@H](C)Oc3ccc(NS(=O)(=O)c4ccc(F)cc4)cc3C(=O)N([C@@H](C)CO)C[C@H]2C)cc1`, the growth inhibition call was “inactive”. With `C[C@@H]1CCCCO[C@@H](CN(C)C(=O)Nc2ccc(C(F)(F)F)cc2)[C@@H](C)CN([C@H](C)CO)C(=O)c2cc(NS(C)(=O)=O)ccc2O1`, the growth inhibition call was “inactive”. On the same count and under the same terms, for `C[C@@H]1CN([C@H](C)CO)C(=O)c2cc(NC(=O)CCN3CCOCC3)ccc2O[C@H]1CN(C)S(C)(=O)=O` the value was “inactive”.
